# The other results are listed elsewhere or left out. Rule as the data show it: active = 3.2 or more and inactive = the rest. Only a few entries rise above the background.
# Target: SHP2 C-SH2 domain E139D
# Test: enrichment score (SH2-bound / input frequency) (ratio); bacterial display of known human phosphotyrosine sites (pTyr-Var adds point mutants) read by sequencing; higher = stronger binding; tyrosines were phosphorylated by kinases first
# Conditions: peptide library: Human pTyr
# 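Also: displayed peptides selected on beads carrying the immobilized SH2 domain, with library peptides lacking any tyrosine serving as negative controls.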
row,Binder,enrichment score
1,TLRAEDMYSAQSHQA [GPC5C_HUMAN_414],inactive: 0.589
2,FPLFTAVYQICAESR [GPD1L_HUMAN_328_YA],inactive: 2.04
3,TARKFLAYEMGAKSR [GPDM_HUMAN_601_YA],inactive: 1.53
4,EILNSLKYVRPGGGF [GPX1_HUMAN_98],inactive: 0.617
5,VVKDPSIYDTLESVR [GRASP_HUMAN_237],inactive: 0.875
6,EECDQNWYKAELNGK [GRB2_HUMAN_37],inactive: 1
7,NGSFGGQYSECRDPA [AKAP8_HUMAN_170],inactive: 0.789
8,GLSNNDQYKLYSKHF [GRIN2A_HUMAN_1184],inactive: 0.782
9,NNDQYKLYSKHFTLK [GRIN2A_HUMAN_1187],inactive: 0.995
10,CLRMGNLYDIDEDQM [GRIN2A_HUMAN_1246],inactive: 1.5
11,KRKQFQLYEEPDTKL [AKAP8_HUMAN_311],inactive: 0.737
12,SDKGNLMYSDNRSFQ [GRIN2A_HUMAN_943],inactive: 0.799
13,NFSVDKLYDLLFTNS [GRM1B_HUMAN_389],inactive: 1.76
14,GGGGMPPYTVVAFPV [GSTP1_HUMAN_4_YA],inactive: 1.49
15,MPPATVVYFPVRGRC [GSTP1_HUMAN_8_YA],inactive: 0.644
16,TVEFLQEYIVNRNKK [AKAP8_HUMAN_436],inactive: 1.19
17,EASRLAHYNKRSTIT [H2B1B_HUMAN_84],inactive: 0.793
18,GVKKPHRYRPGTVAL [H31_HUMAN_42],inactive: 2.01

# Target: SHP2 C-SH2 domain wild-type
# Test: as above
# Conditions: peptide library: Human pTyr
row,Binder,enrichment score
1,TLRAEDMYSAQSHQA [GPC5C_HUMAN_414],inactive: 0.547
2,FPLFTAVYQICAESR [GPD1L_HUMAN_328_YA],inactive: 1.97
3,TARKFLAYEMGAKSR [GPDM_HUMAN_601_YA],inactive: 1.17
4,EILNSLKYVRPGGGF [GPX1_HUMAN_98],inactive: 0.538
5,VVKDPSIYDTLESVR [GRASP_HUMAN_237],inactive: 0.697
6,EECDQNWYKAELNGK [GRB2_HUMAN_37],inactive: 0.881
7,NGSFGGQYSECRDPA [AKAP8_HUMAN_170],inactive: 0.988
8,GLSNNDQYKLYSKHF [GRIN2A_HUMAN_1184],inactive: 0.738
9,NNDQYKLYSKHFTLK [GRIN2A_HUMAN_1187],inactive: 0.955
10,CLRMGNLYDIDEDQM [GRIN2A_HUMAN_1246],inactive: 1.37
11,KRKQFQLYEEPDTKL [AKAP8_HUMAN_311],inactive: 0.834
12,SDKGNLMYSDNRSFQ [GRIN2A_HUMAN_943],inactive: 0.747
13,NFSVDKLYDLLFTNS [GRM1B_HUMAN_389],inactive: 1.85
14,GGGGMPPYTVVAFPV [GSTP1_HUMAN_4_YA],active: 4.45
15,MPPATVVYFPVRGRC [GSTP1_HUMAN_8_YA],inactive: 1.14
16,TVEFLQEYIVNRNKK [AKAP8_HUMAN_436],inactive: 0.707
17,EASRLAHYNKRSTIT [H2B1B_HUMAN_84],inactive: 0.707
18,GVKKPHRYRPGTVAL [H31_HUMAN_42],inactive: 2.15

# Target: SHP2 N-SH2 domain L43F
# Test: as above
# Conditions: peptide library: Human pTyr
row,Binder,enrichment score
1,TLRAEDMYSAQSHQA [GPC5C_HUMAN_414],inactive: 0.609
2,FPLFTAVYQICAESR [GPD1L_HUMAN_328_YA],inactive: 2.02
3,TARKFLAYEMGAKSR [GPDM_HUMAN_601_YA],inactive: 1.11
4,EILNSLKYVRPGGGF [GPX1_HUMAN_98],inactive: 0.574
5,VVKDPSIYDTLESVR [GRASP_HUMAN_237],inactive: 0.715
6,EECDQNWYKAELNGK [GRB2_HUMAN_37],inactive: 1.1
7,NGSFGGQYSECRDPA [AKAP8_HUMAN_170],inactive: 0.9
8,GLSNNDQYKLYSKHF [GRIN2A_HUMAN_1184],inactive: 0.774
9,NNDQYKLYSKHFTLK [GRIN2A_HUMAN_1187],inactive: 1.1
10,CLRMGNLYDIDEDQM [GRIN2A_HUMAN_1246],inactive: 1.45
11,KRKQFQLYEEPDTKL [AKAP8_HUMAN_311],inactive: 0.727
12,SDKGNLMYSDNRSFQ [GRIN2A_HUMAN_943],inactive: 0.8
13,NFSVDKLYDLLFTNS [GRM1B_HUMAN_389],inactive: 1.64
14,GGGGMPPYTVVAFPV [GSTP1_HUMAN_4_YA],active: 7.4
15,MPPATVVYFPVRGRC [GSTP1_HUMAN_8_YA],inactive: 0.457
16,TVEFLQEYIVNRNKK [AKAP8_HUMAN_436],inactive: 1.07
17,EASRLAHYNKRSTIT [H2B1B_HUMAN_84],inactive: 0.636
18,GVKKPHRYRPGTVAL [H31_HUMAN_42],inactive: 1.94

# Target: SHP2 N-SH2 domain T42A
# Test: as above
# Conditions: peptide library: Human pTyr
row,Binder,enrichment score
1,TLRAEDMYSAQSHQA [GPC5C_HUMAN_414],inactive: 0.757
2,FPLFTAVYQICAESR [GPD1L_HUMAN_328_YA],inactive: 1.85
3,TARKFLAYEMGAKSR [GPDM_HUMAN_601_YA],inactive: 1.4
4,EILNSLKYVRPGGGF [GPX1_HUMAN_98],inactive: 0.577
5,VVKDPSIYDTLESVR [GRASP_HUMAN_237],inactive: 0.615
6,EECDQNWYKAELNGK [GRB2_HUMAN_37],inactive: 0.888
7,NGSFGGQYSECRDPA [AKAP8_HUMAN_170],inactive: 0.848
8,GLSNNDQYKLYSKHF [GRIN2A_HUMAN_1184],inactive: 0.699
9,NNDQYKLYSKHFTLK [GRIN2A_HUMAN_1187],inactive: 0.755
10,CLRMGNLYDIDEDQM [GRIN2A_HUMAN_1246],inactive: 1.4
11,KRKQFQLYEEPDTKL [AKAP8_HUMAN_311],inactive: 0.936
12,SDKGNLMYSDNRSFQ [GRIN2A_HUMAN_943],inactive: 0.657
13,NFSVDKLYDLLFTNS [GRM1B_HUMAN_389],inactive: 1.68
14,GGGGMPPYTVVAFPV [GSTP1_HUMAN_4_YA],active: 13.8
15,MPPATVVYFPVRGRC [GSTP1_HUMAN_8_YA],inactive: 0.423
16,TVEFLQEYIVNRNKK [AKAP8_HUMAN_436],inactive: 0.785
17,EASRLAHYNKRSTIT [H2B1B_HUMAN_84],inactive: 0.653
18,GVKKPHRYRPGTVAL [H31_HUMAN_42],inactive: 2.06

# Target: SHP2 N-SH2 domain T52S
# Test: as above
# Conditions: peptide library: Human pTyr
row,Binder,enrichment score
1,TLRAEDMYSAQSHQA [GPC5C_HUMAN_414],inactive: 0.587
2,FPLFTAVYQICAESR [GPD1L_HUMAN_328_YA],inactive: 1.96
3,TARKFLAYEMGAKSR [GPDM_HUMAN_601_YA],inactive: 1.2
4,EILNSLKYVRPGGGF [GPX1_HUMAN_98],inactive: 0.596
5,VVKDPSIYDTLESVR [GRASP_HUMAN_237],inactive: 0.706
6,EECDQNWYKAELNGK [GRB2_HUMAN_37],inactive: 1.01
7,NGSFGGQYSECRDPA [AKAP8_HUMAN_170],inactive: 0.774
8,GLSNNDQYKLYSKHF [GRIN2A_HUMAN_1184],inactive: 0.798
9,NNDQYKLYSKHFTLK [GRIN2A_HUMAN_1187],inactive: 1.06
10,CLRMGNLYDIDEDQM [GRIN2A_HUMAN_1246],inactive: 1.54
11,KRKQFQLYEEPDTKL [AKAP8_HUMAN_311],inactive: 0.732
12,SDKGNLMYSDNRSFQ [GRIN2A_HUMAN_943],inactive: 0.813
13,NFSVDKLYDLLFTNS [GRM1B_HUMAN_389],inactive: 2.06
14,GGGGMPPYTVVAFPV [GSTP1_HUMAN_4_YA],active: 4.89
15,MPPATVVYFPVRGRC [GSTP1_HUMAN_8_YA],inactive: 0.354
16,TVEFLQEYIVNRNKK [AKAP8_HUMAN_436],inactive: 0.895
17,EASRLAHYNKRSTIT [H2B1B_HUMAN_84],inactive: 1.3
18,GVKKPHRYRPGTVAL [H31_HUMAN_42],inactive: 2.28

# Target: SHP2 N-SH2 domain wild-type
# Test: as above
# Conditions: peptide library: Human pTyr
row,Binder,enrichment score
1,TLRAEDMYSAQSHQA [GPC5C_HUMAN_414],inactive: 0.64
2,FPLFTAVYQICAESR [GPD1L_HUMAN_328_YA],inactive: 2.13
3,TARKFLAYEMGAKSR [GPDM_HUMAN_601_YA],inactive: 1.52
4,EILNSLKYVRPGGGF [GPX1_HUMAN_98],inactive: 0.572
5,VVKDPSIYDTLESVR [GRASP_HUMAN_237],inactive: 0.828
6,EECDQNWYKAELNGK [GRB2_HUMAN_37],inactive: 1.08
7,NGSFGGQYSECRDPA [AKAP8_HUMAN_170],inactive: 0.963
8,GLSNNDQYKLYSKHF [GRIN2A_HUMAN_1184],inactive: 1.41
9,NNDQYKLYSKHFTLK [GRIN2A_HUMAN_1187],inactive: 1.32
10,CLRMGNLYDIDEDQM [GRIN2A_HUMAN_1246],inactive: 1.6
11,KRKQFQLYEEPDTKL [AKAP8_HUMAN_311],inactive: 0.681
12,SDKGNLMYSDNRSFQ [GRIN2A_HUMAN_943],inactive: 0.719
13,NFSVDKLYDLLFTNS [GRM1B_HUMAN_389],inactive: 1.99
14,GGGGMPPYTVVAFPV [GSTP1_HUMAN_4_YA],inactive: 1.01
15,MPPATVVYFPVRGRC [GSTP1_HUMAN_8_YA],inactive: 0.652
16,TVEFLQEYIVNRNKK [AKAP8_HUMAN_436],inactive: 1.2
17,EASRLAHYNKRSTIT [H2B1B_HUMAN_84],inactive: 1.03
18,GVKKPHRYRPGTVAL [H31_HUMAN_42],inactive: 2.65
